Results published in a collection of fitness landscapes (doi:10.1126/science.1257360).
Some of the results follow.

B1: PhoQ; a variant is named by its letters at X, in order, P23837 (parent)
chain: MKKLLRLFFPLSLRVRFLLATAAVVLVLSLAYGMVALIGYSVSFDKTTFRLLRGESNLFYTLAKWENNKLHVELPENIDKQSPTMTLIYDENGQLLWAQRDVPWLMKMIQPDWLKSNGFHEIEADVNDTSLLLSGDHSIQQQLQEVREDDDDAEMTHSVAVNVYPATSRMPKLTIVVVDTIPVELKSSYMVWSWFIYVLSANLLLVIPLLWVAAWWSLRPIEALAKEVRELEEHNRELLNPATTRELTSLVRNLNRLLKSERERYDKYRTTLTDLTHSLKTPLXXLQXXLRSLRSEKMSVSDAEPVMLEQISRISQQIGYYLHRASMRGGTLLSRELHPVAPLLDNLTSALNKVYQRKGVNISLDISPEISFVGEQNDFVEVMGNVLDNACKYCLEFVEISARQTDEHLYIVVEDDGPGIPLSKREVIFDRGQRVDTLRPGQGVGLAVAREITEQYEGKIVAGESMLGGARMEVIFGRQHSAPKDE

Variants of: B1
Assay: enrichment ratio after two sorts for PhoP signalling (ratio (wild type AVST 3.29)); higher = more functional
Conditions: with PhoP (E. coli)

RLPY and PHIF cannot be ordered by enrichment ratio: ≤ 0.25 for the first, ≤ 0.25 for the second.

EKCS and PRKC cannot be ordered by enrichment ratio: ≤ 0.25 for the first, ≤ 0.25 for the second.

LMKY and KITA cannot be ordered by enrichment ratio: ≤ 0.25 for the first, ≤ 0.25 for the second.

VFYM and LHTH cannot be ordered by enrichment ratio: ≤ 0.25 for the first, ≤ 0.25 for the second.

NPPT and GPMS cannot be ordered by enrichment ratio: ≤ 0.25 for the first, ≤ 0.25 for the second.

SVYL and MEAE cannot be ordered by enrichment ratio: ≤ 0.25 for the first, ≤ 0.25 for the second.

FCKM and MYSF cannot be ordered by enrichment ratio: ≤ 0.25 for the first, ≤ 0.25 for the second.

KYTV and VMYM cannot be ordered by enrichment ratio: ≤ 0.25 for the first, ≤ 0.25 for the second.

Going from TMTT to MYTC, the enrichment ratio falls from 10.4 to ≤ 0.25.

LCYR and VQGR cannot be ordered by enrichment ratio: ≤ 0.25 for the first, ≤ 0.25 for the second.

HDYG and TYEV cannot be ordered by enrichment ratio: ≤ 0.25 for the first, ≤ 0.25 for the second.

FTWV and PSPM cannot be ordered by enrichment ratio: ≤ 0.25 for the first, ≤ 0.25 for the second.

Compared with IFPH, GREL is lower in enrichment ratio: 0.265 for the first, ≤ 0.25 for the second.

GWNV and KTEG cannot be ordered by enrichment ratio: ≤ 0.25 for the first, ≤ 0.25 for the second.

IAPN and QVPT cannot be ordered by enrichment ratio: ≤ 0.25 for the first, ≤ 0.25 for the second.

LDLF and HPCQ cannot be ordered by enrichment ratio: ≤ 0.25 for the first, ≤ 0.25 for the second.

Going from SYAY to YRNN, the enrichment ratio rises from ≤ 0.25 to 1.24.

ECNQ and SNIW cannot be ordered by enrichment ratio: ≤ 0.25 for the first, ≤ 0.25 for the second.

NLAF and HRLW cannot be ordered by enrichment ratio: ≤ 0.25 for the first, ≤ 0.25 for the second.

Going from KAWR to GFWW, the enrichment ratio rises from ≤ 0.25 to 1.03.

ISIA and IREA cannot be ordered by enrichment ratio: ≤ 0.25 for the first, ≤ 0.25 for the second.

MPCS and YHDI cannot be ordered by enrichment ratio: ≤ 0.25 for the first, ≤ 0.25 for the second.

EYDC and FSYE cannot be ordered by enrichment ratio: ≤ 0.25 for the first, ≤ 0.25 for the second.

VQKD and KKEF cannot be ordered by enrichment ratio: ≤ 0.25 for the first, ≤ 0.25 for the second.

PVPK and GLFK cannot be ordered by enrichment ratio: ≤ 0.25 for the first, ≤ 0.25 for the second.

YNTY and LGPI cannot be ordered by enrichment ratio: ≤ 0.25 for the first, ≤ 0.25 for the second.

VANI and MYGL cannot be ordered by enrichment ratio: ≤ 0.25 for the first, ≤ 0.25 for the second.

VVLA and ESQT cannot be ordered by enrichment ratio: ≤ 0.25 for the first, ≤ 0.25 for the second.

LREF and AYFF cannot be ordered by enrichment ratio: ≤ 0.25 for the first, ≤ 0.25 for the second.

WWSW and NGWQ cannot be ordered by enrichment ratio: ≤ 0.25 for the first, ≤ 0.25 for the second.

Going from AKLT to SKYW, the enrichment ratio falls from 6.1 to ≤ 0.25.

MKRQ and IKGH cannot be ordered by enrichment ratio: ≤ 0.25 for the first, ≤ 0.25 for the second.

KHMT and RQYT cannot be ordered by enrichment ratio: ≤ 0.25 for the first, ≤ 0.25 for the second.

Going from TCGF to TYMF, the enrichment ratio falls from 12.5 to ≤ 0.25.

WLAL and PGAL cannot be ordered by enrichment ratio: ≤ 0.25 for the first, ≤ 0.25 for the second.

GSYN and LYKC cannot be ordered by enrichment ratio: ≤ 0.25 for the first, ≤ 0.25 for the second.

HTCP and HSSE cannot be ordered by enrichment ratio: ≤ 0.25 for the first, ≤ 0.25 for the second.

MTEN and WSGV cannot be ordered by enrichment ratio: ≤ 0.25 for the first, ≤ 0.25 for the second.

NLAV and NKII cannot be ordered by enrichment ratio: ≤ 0.25 for the first, ≤ 0.25 for the second.

Compared with TACV, RGTR is lower in enrichment ratio: 9.39 for the first, ≤ 0.25 for the second.

LTHH and RRMK cannot be ordered by enrichment ratio: ≤ 0.25 for the first, ≤ 0.25 for the second.

PPTM and NYCE cannot be ordered by enrichment ratio: ≤ 0.25 for the first, ≤ 0.25 for the second.

GLAD and EMRN cannot be ordered by enrichment ratio: ≤ 0.25 for the first, ≤ 0.25 for the second.

SDWQ and FPGI cannot be ordered by enrichment ratio: ≤ 0.25 for the first, ≤ 0.25 for the second.

PGWH and KYKR cannot be ordered by enrichment ratio: ≤ 0.25 for the first, ≤ 0.25 for the second.

HKRY and TGYE cannot be ordered by enrichment ratio: ≤ 0.25 for the first, ≤ 0.25 for the second.

PTFL and LQMT cannot be ordered by enrichment ratio: ≤ 0.25 for the first, ≤ 0.25 for the second.

HQDF and EAQA cannot be ordered by enrichment ratio: ≤ 0.25 for the first, ≤ 0.25 for the second.

PFDV and GGNQ cannot be ordered by enrichment ratio: ≤ 0.25 for the first, ≤ 0.25 for the second.

PHHG and MWLN cannot be ordered by enrichment ratio: ≤ 0.25 for the first, ≤ 0.25 for the second.

IFKV and LPYE cannot be ordered by enrichment ratio: ≤ 0.25 for the first, ≤ 0.25 for the second.

HISY and IQAH cannot be ordered by enrichment ratio: ≤ 0.25 for the first, ≤ 0.25 for the second.

IDCM and RLRR cannot be ordered by enrichment ratio: ≤ 0.25 for the first, ≤ 0.25 for the second.

LIYF and THWF cannot be ordered by enrichment ratio: ≤ 0.25 for the first, ≤ 0.25 for the second.

IIAQ and YMEY cannot be ordered by enrichment ratio: ≤ 0.25 for the first, ≤ 0.25 for the second.

VYAE and KNNK cannot be ordered by enrichment ratio: ≤ 0.25 for the first, ≤ 0.25 for the second.

EELQ and RVET cannot be ordered by enrichment ratio: ≤ 0.25 for the first, ≤ 0.25 for the second.

QHRM and FMVY cannot be ordered by enrichment ratio: ≤ 0.25 for the first, ≤ 0.25 for the second.

AEEA and RSYV cannot be ordered by enrichment ratio: ≤ 0.25 for the first, ≤ 0.25 for the second.

WELT and QRKY cannot be ordered by enrichment ratio: ≤ 0.25 for the first, ≤ 0.25 for the second.

KSWA and DLFQ cannot be ordered by enrichment ratio: ≤ 0.25 for the first, ≤ 0.25 for the second.

Going from YIAF to RRNH, the enrichment ratio falls from 0.549 to ≤ 0.25.

MSSD and GDTH cannot be ordered by enrichment ratio: ≤ 0.25 for the first, ≤ 0.25 for the second.

FGWW and NNDI cannot be ordered by enrichment ratio: ≤ 0.25 for the first, ≤ 0.25 for the second.

FEIK and FADP cannot be ordered by enrichment ratio: ≤ 0.25 for the first, ≤ 0.25 for the second.

QVWK and SWNN cannot be ordered by enrichment ratio: ≤ 0.25 for the first, ≤ 0.25 for the second.

PNSN and DYLL cannot be ordered by enrichment ratio: ≤ 0.25 for the first, ≤ 0.25 for the second.

KCGC and EITN cannot be ordered by enrichment ratio: ≤ 0.25 for the first, ≤ 0.25 for the second.

AFTS and LSMT cannot be ordered by enrichment ratio: ≤ 0.25 for the first, ≤ 0.25 for the second.

IRFQ and DAEY cannot be ordered by enrichment ratio: ≤ 0.25 for the first, ≤ 0.25 for the second.

IWRQ and TFES cannot be ordered by enrichment ratio: ≤ 0.25 for the first, ≤ 0.25 for the second.

IDTT and WGSI cannot be ordered by enrichment ratio: ≤ 0.25 for the first, ≤ 0.25 for the second.

GCIH and TIPY cannot be ordered by enrichment ratio: ≤ 0.25 for the first, ≤ 0.25 for the second.

GHKG and QPDC cannot be ordered by enrichment ratio: ≤ 0.25 for the first, ≤ 0.25 for the second.

SICW and LWYL cannot be ordered by enrichment ratio: ≤ 0.25 for the first, ≤ 0.25 for the second.

WETW and RFMT cannot be ordered by enrichment ratio: ≤ 0.25 for the first, ≤ 0.25 for the second.

With QPYG the enrichment ratio was ≤ 0.25.
